Some of the results follow. Single values are uncertain, as repeats are few or missing.
Experiments:
Assay in all cases: cell count relative to DMSO control; melanoma cells; higher = more viable cells
Conditions in all cases: library dose: standard library concentration; 72 h
[1] = tested on: G361
[2] = tested on: IPC-298
[3] = tested on: IST-MEL1
[4] = tested on: LOXIMVI
[5] = tested on: MEL-HO
[6] = tested on: MeWo
[7] = tested on: RPMI7951
[8] = tested on: RVH-421
[9] = tested on: SkMel28
[10] = tested on: SkMel2
[11] = tested on: SkMel30
[12] = tested on: SkMel5
[13] = tested on: UACC257
[14] = tested on: UACC62
[15] = tested on: WM115
[16] = tested on: WM1716
[17] = tested on: WM3526
[18] = tested on: LB2518-MEL
[19] = tested on: MZ2-MEL
[20] = tested on: WM1745
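Also: cells treated in 1,536-well plates, then fixed and DAPI-stained, with nuclei counted from automated high-throughput microscope images.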

| SMILES | cell count [1] | cell count [2] | cell count [3] | cell count [4] | cell count [5] | cell count [6] | cell count [7] | cell count [8] | cell count [9] | cell count [10] | cell count [11] | cell count [12] | cell count [13] | cell count [14] | cell count [15] | cell count [16] | cell count [17] | cell count [18] | cell count [19] | cell count [20] |
| --- | --- | --- | --- | --- | --- | --- | --- | --- | --- | --- | --- | --- | --- | --- | --- | --- | --- | --- | --- | --- |
| Cn1cnc2c(F)c(Nc3ccc(Br)cc3Cl)c(C(=O)NOCCO)cc21 [selumetinib] + Cc1cc([N+](=O)[O-])ccc1NS(=O)(=O)c1cc(Cl)ccc1Cl [FH535] (first compound 0.075 µM, partner dose 5 µM) | 42.1% | 54.8% | 62.4% | 90.5% | 44.4% | 68.5% | 93.5% | 63.3% | 55.7% | 52% | 62.9% | 71.1% | 80.9% | 74% | 55.9% | 64.3% | 62.9% | – | – | – |
| CCN(CC)CCNC(=O)c1c(C)[nH]c(/C=C2\C(=O)Nc3ccc(F)cc32)c1C [sunitinib] + COC(=O)c1sccc1S(=O)(=O)Nc1ccc(Nc2ccccc2)cc1OC [GSK0660] (first compound 2 µM, partner dose 5 µM) | 77.5% | 90.4% | 101% | 101% | 86.1% | 54.8% | 71.5% | 80.9% | 71.5% | 85.4% | 61.9% | 42.3% | 87.1% | 61.6% | 56.6% | 116% | 61.5% | 71.3% | 98.2% | – |
| COc1cc([C@@H]2c3cc4c(cc3[C@@H](O[C@@H]3O[C@@H]5CO[C@@H](C)O[C@H]5[C@H](O)[C@H]3O)[C@H]3COC(=O)[C@H]23)OCO4)cc(OC)c1O [etoposide] + CCCCCCCCCCCC1=C(O)C(=O)C=C(O)C1=O [Embelin] (first compound 0.1 µM, partner dose 6 µM) | 77.6% | 57.9% | 54.5% | 121% | 64.9% | 100% | 90.1% | 76.7% | 59.5% | 56.8% | 108% | 98.3% | 84.6% | 69.3% | 77.9% | 50.9% | 102% | 91% | 85.8% | – |
| COc1cc([C@@H]2c3cc4c(cc3[C@@H](O[C@@H]3O[C@@H]5CO[C@@H](C)O[C@H]5[C@H](O)[C@H]3O)[C@H]3COC(=O)[C@H]23)OCO4)cc(OC)c1O [etoposide] + NC(=O)Nc1cc(-c2cccc(F)c2)sc1C(=O)N[C@H]1CCCNC1 [AZD7762] (first compound 0.1 µM, partner dose 0.1 µM) | 90.5% | 86.1% | 105% | 79.5% | 85.7% | 69.6% | 31.7% | – | 41% | 61.5% | 65.7% | 74.7% | 99.6% | 45% | 56.1% | 50.3% | 47% | 64.2% | 101% | 72.9% |
| COc1cc([C@@H]2c3cc4c(cc3[C@@H](O[C@@H]3O[C@@H]5CO[C@@H](C)O[C@H]5[C@H](O)[C@H]3O)[C@H]3COC(=O)[C@H]23)OCO4)cc(OC)c1O [etoposide] + O=C(CCCCCCC(=O)Nc1ccccc1)NO [vorinostat] (first compound 0.1 µM, partner dose 0.4 µM) | 70.4% | 80.8% | – | – | 79.4% | 78.9% | 102% | 80% | 55.3% | 53.3% | 77.8% | 74% | 65.8% | 79.7% | 65.9% | 69.7% | 78.9% | 69.2% | 86.7% | 67% |
| COc1cc([C@@H]2c3cc4c(cc3[C@@H](O[C@@H]3O[C@@H]5CO[C@@H](C)O[C@H]5[C@H](O)[C@H]3O)[C@H]3COC(=O)[C@H]23)OCO4)cc(OC)c1O [etoposide] + Cn1nnc2c(C(N)=O)ncn2c1=O [temozolomide] (first compound 0.1 µM, partner dose 10 µM) | 88.5% | 68.2% | 89.9% | 83.9% | 96.7% | 95.8% | 135% | 80.9% | 57.1% | 69.1% | 71.6% | 102% | 97.8% | 60.3% | 90% | 60.3% | 92% | – | – | 77.9% |
| C[C@]1(O)C[C@@H](c2nc(-c3ccc4ccc(-c5ccccc5)nc4c3)c3c(N)nccn32)C1 + COc1ccc(-c2ccc3c(N4CCOCC4)nc(N4C[C@@H](C)O[C@@H](C)C4)nc3n2)cc1CO [KU0063794] (first compound 2 µM, partner dose 0.1 µM) | 58.8% | 64.9% | 100% | 72.8% | 77.9% | 70.8% | 90.7% | 129% | 77% | 65.1% | 83.3% | 57.6% | 87% | 79.2% | 84.8% | 95.3% | 73.2% | – | – | – |

Source: the supplement of paper PMC4604168 (melanoma cell lines)
